# According to PMC9911399, “Two distinct binding modes provide the RNA-binding protein RbFox with extraordinary sequence specificity”:
# Where a chain is given by its changes, count along the chain named. The list shows a part of the results.
# T1: RBFOX1 RRM RbFoxmut (Fox-RRM*) (Homo sapiens, UniProt Q9NWB1 109-208, R118D;E147R;N151S;E152T)
# T1 sequence: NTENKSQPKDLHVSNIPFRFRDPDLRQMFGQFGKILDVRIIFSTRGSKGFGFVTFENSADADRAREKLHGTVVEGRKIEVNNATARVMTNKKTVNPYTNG
# B1: GUAAAUC (DNA:RNA)
# RNA: GGGAGACCGGAAUUCAGAUUGUCCGUAAAUCUUAAAUCCCGUCGUAGCCACCA
# DNA 1: CAATCTGAATTCCGGTCTCCC
# DNA 2: TGGTGGCTACGACGGGATT
# B2: UGGUCCU (DNA:RNA)
# RNA: GGGAGACCGGAAUUCAGAUUGUCCUGGUCCUUUAAAUCCCGUCGUAGCCACCA
# DNA 1: CAATCTGAATTCCGGTCTCCC
# DNA 2: TGGTGGCTACGACGGGATT
# B3: UACUCAA (DNA:RNA)
# RNA: B2 RNA with G26A, G27C, C30A, U31A
# DNA 1: CAATCTGAATTCCGGTCTCCC
# DNA 2: TGGTGGCTACGACGGGATT
# B4: ACUAAGU (DNA:RNA)
# RNA: B1 RNA with G25A, U26C, A27U, U30G, C31U
# DNA 1: CAATCTGAATTCCGGTCTCCC
# DNA 2: TGGTGGCTACGACGGGATT
# B5: CCCAGCC (DNA:RNA)
# RNA: B1 RNA with G25C, U26C, A27C, A29G, U30C
# DNA 1: CAATCTGAATTCCGGTCTCCC
# DNA 2: TGGTGGCTACGACGGGATT
# B6: AUUGAAC (DNA:RNA)
# RNA: B1 RNA with G25A, A27U, A28G, U30A
# DNA 1: CAATCTGAATTCCGGTCTCCC
# DNA 2: TGGTGGCTACGACGGGATT
# B7: GUCUGUG (DNA:RNA)
# RNA: B1 RNA with A27C, A28U, A29G, C31G
# DNA 1: CAATCTGAATTCCGGTCTCCC
# DNA 2: TGGTGGCTACGACGGGATT
# B8: CCACGCA (DNA:RNA)
# RNA: B1 RNA with G25C, U26C, A28C, A29G, U30C, C31A
# DNA 1: CAATCTGAATTCCGGTCTCCC
# DNA 2: TGGTGGCTACGACGGGATT
# B9: GGGUGAG (DNA:RNA)
# RNA: B2 RNA with U25G, C29G, C30A, U31G
# DNA 1: CAATCTGAATTCCGGTCTCCC
# DNA 2: TGGTGGCTACGACGGGATT
# B10: GGGGAGC (DNA:RNA)
# RNA: B1 RNA with U26G, A27G, A28G, U30G
# DNA 1: CAATCTGAATTCCGGTCTCCC
# DNA 2: TGGTGGCTACGACGGGATT
# B11: CUGUUGG (DNA:RNA)
# RNA: B2 RNA with U25C, G26U, C29U, C30G, U31G
# DNA 1: CAATCTGAATTCCGGTCTCCC
# DNA 2: TGGTGGCTACGACGGGATT
# B12: GUAGCAA (DNA:RNA)
# RNA: B1 RNA with A28G, A29C, U30A, C31A
# DNA 1: CAATCTGAATTCCGGTCTCCC
# DNA 2: TGGTGGCTACGACGGGATT
# B13: GAAGCCG (DNA:RNA)
# RNA: B1 RNA with U26A, A28G, A29C, U30C, C31G
# DNA 1: CAATCTGAATTCCGGTCTCCC
# DNA 2: TGGTGGCTACGACGGGATT
# B14: GAUUGAU (DNA:RNA)
# RNA: B2 RNA with U25G, G26A, G27U, C29G, C30A
# DNA 1: CAATCTGAATTCCGGTCTCCC
# DNA 2: TGGTGGCTACGACGGGATT
# B15: UACGCGA (DNA:RNA)
# RNA: B2 RNA with G26A, G27C, U28G, C30G, U31A
# DNA 1: CAATCTGAATTCCGGTCTCCC
# DNA 2: TGGTGGCTACGACGGGATT
# B16: AGGAUCC (DNA:RNA)
# RNA: B2 RNA with U25A, U28A, C29U, U31C
# DNA 1: CAATCTGAATTCCGGTCTCCC
# DNA 2: TGGTGGCTACGACGGGATT
# B17: UAGUUCU (DNA:RNA)
# RNA: B2 RNA with G26A, C29U
# DNA 1: CAATCTGAATTCCGGTCTCCC
# DNA 2: TGGTGGCTACGACGGGATT
# B18: GGACCGU (DNA:RNA)
# RNA: B2 RNA with U25G, G27A, U28C, C30G
# DNA 1: CAATCTGAATTCCGGTCTCCC
# DNA 2: TGGTGGCTACGACGGGATT
# B19: GCAAGAA (DNA:RNA)
# RNA: B1 RNA with U26C, A29G, U30A, C31A
# DNA 1: CAATCTGAATTCCGGTCTCCC
# DNA 2: TGGTGGCTACGACGGGATT
# B20: AUGUAGG (DNA:RNA)
# RNA: B1 RNA with G25A, A27G, A28U, U30G, C31G
# DNA 1: CAATCTGAATTCCGGTCTCCC
# DNA 2: TGGTGGCTACGACGGGATT
# B21: GACGGAU (DNA:RNA)
# RNA: B1 RNA with U26A, A27C, A28G, A29G, U30A, C31U
# DNA 1: CAATCTGAATTCCGGTCTCCC
# DNA 2: TGGTGGCTACGACGGGATT
# B22: GGGUUGC (DNA:RNA)
# RNA: B2 RNA with U25G, C29U, C30G, U31C
# DNA 1: CAATCTGAATTCCGGTCTCCC
# DNA 2: TGGTGGCTACGACGGGATT
# B23: GUCCCAG (DNA:RNA)
# RNA: B1 RNA with A27C, A28C, A29C, U30A, C31G
# DNA 1: CAATCTGAATTCCGGTCTCCC
# DNA 2: TGGTGGCTACGACGGGATT
# B24: GGGUUGA (DNA:RNA)
# RNA: B2 RNA with U25G, C29U, C30G, U31A
# DNA 1: CAATCTGAATTCCGGTCTCCC
# DNA 2: TGGTGGCTACGACGGGATT
# B25: UAGUUAC (DNA:RNA)
# RNA: B2 RNA with G26A, C29U, C30A, U31C
# DNA 1: CAATCTGAATTCCGGTCTCCC
# DNA 2: TGGTGGCTACGACGGGATT
# B26: AAAGUGC (DNA:RNA)
# RNA: B1 RNA with G25A, U26A, A28G, A29U, U30G
# DNA 1: CAATCTGAATTCCGGTCTCCC
# DNA 2: TGGTGGCTACGACGGGATT
# B27: GGAAAAA (DNA:RNA)
# RNA: B1 RNA with U26G, U30A, C31A
# DNA 1: CAATCTGAATTCCGGTCTCCC
# DNA 2: TGGTGGCTACGACGGGATT
# B28: AUAGUCC (DNA:RNA)
# RNA: B1 RNA with G25A, A28G, A29U, U30C
# DNA 1: CAATCTGAATTCCGGTCTCCC
# DNA 2: TGGTGGCTACGACGGGATT
# B29: GACUUAA (DNA:RNA)
# RNA: B1 RNA with U26A, A27C, A28U, A29U, U30A, C31A
# DNA 1: CAATCTGAATTCCGGTCTCCC
# DNA 2: TGGTGGCTACGACGGGATT
# B30: UUCAAUG (DNA:RNA)
# RNA: B1 RNA with G25U, A27C, C31G
# DNA 1: CAATCTGAATTCCGGTCTCCC
# DNA 2: TGGTGGCTACGACGGGATT
# B31: ACCCAUU (DNA:RNA)
# RNA: B1 RNA with G25A, U26C, A27C, A28C, C31U
# DNA 1: CAATCTGAATTCCGGTCTCCC
# DNA 2: TGGTGGCTACGACGGGATT
# Target: T1, RBFOX1 RRM RbFoxmut (Fox-RRM*)
# Experiment: EMSA; HiTS-Eq, 1 nM pool, 10 min; buffer printed only for the single-RNA assays: 10 mM Tris pH 7.5, 150 mM NaCl, 3.4 mM EDTA, 0.001% NP-40, 30 C
# Settings: tags: His6 N-terminal (pET28a); label: 5' 32P
# In short: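 These values rest on relative association constants, computed from read-count changes of each RNA species versus the control reaction and normalised to the cognate motif. Reads came from free RNA recovered by 8% native PAGE after purified RbFox RRM (wild type or mutant) at increasing concentrations was equilibrated for 10 min in 50 µL with 1 nM of a 5′-radiolabelled pool with 7 randomized nucleotides and DNA-annealed flanks.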
row,Binder,binding signal
1,B1,0.0595 KA relative to UGCAUGU
2,B2,0.0987 KA relative to UGCAUGU
3,B3,0.0652 KA relative to UGCAUGU
4,B4,0.126 KA relative to UGCAUGU
5,B5,0.109 KA relative to UGCAUGU
6,B6,0.101 KA relative to UGCAUGU
7,B7,0.191 KA relative to UGCAUGU
8,B8,0.151 KA relative to UGCAUGU
9,B9,0.147 KA relative to UGCAUGU
10,B10,0.104 KA relative to UGCAUGU
11,B11,0.0974 KA relative to UGCAUGU
12,B12,0.0808 KA relative to UGCAUGU
13,B13,0.0597 KA relative to UGCAUGU
14,B14,0.13 KA relative to UGCAUGU
15,B15,0.0727 KA relative to UGCAUGU
16,B16,0.142 KA relative to UGCAUGU

row,Binder,binding signal
1,B17,0.0937 KA relative to UGCAUGU
2,B18,0.164 KA relative to UGCAUGU
3,B19,0.0932 KA relative to UGCAUGU
4,B20,0.128 KA relative to UGCAUGU
5,B21,0.0889 KA relative to UGCAUGU
6,B22,0.256 KA relative to UGCAUGU
7,B23,0.0902 KA relative to UGCAUGU
8,B24,0.356 KA relative to UGCAUGU
9,B25,0.101 KA relative to UGCAUGU
10,B26,0.102 KA relative to UGCAUGU
11,B27,0.0507 KA relative to UGCAUGU
12,B28,0.0899 KA relative to UGCAUGU
13,B29,0.092 KA relative to UGCAUGU
14,B30,0.0878 KA relative to UGCAUGU
15,B31,0.0896 KA relative to UGCAUGU
